Over roughly 81,000 sequences, “one-hybrid fitness for binding NBS DNA” has its median near -0.1; the highest 2% begin near 0.36. Some of the results follow.
B1: Caulobacter ParB omega fusion; a variant is named by its letters at X, in order, B8GW30 (parent)
chain: MESVVVGEPGMSEGRRGLGRGLSALLGEVDAAPAQAPGEQLGGSREAPIEILQRNPDQPRRTFREEDLEDLSNSIREKGVLQPILVRPSPDTAGEYQIVAGERAWRAAQRAGLKTVPIMVRELDDLAVLEIGIIENVQRADLNVLEEALSYKVLMEKFERTQENIAQTIGKSXSHVANXMRLLXLPDEVQSYLVSGELTAXHARAIAAAADPVALAKQIIEGGLSVRETEALARKAPNLSAGKSKGGRPPRVKDTDTQALESDLSSVLGLDVSIDHRGSTGTLTITYATLEQLDDLCNRLTRGI

Variants of: B1
Experiment: one-hybrid fitness for binding NBS DNA (the Noc-binding site; scaled: cognate 1, non-cognate 0); higher = stronger binding
Details: with NBS DNA site
Summary of the method: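 Fitness here means the log change in variant-to-wild-type read ratio between plasmids sequenced before and after selection. That scale was set so cognate equals 1 and non-cognate equals 0. The selection was a bacterial one-hybrid screen of Caulobacter ParB libraries, four specificity codons randomised, in E. coli USO carrying a HIS3 reporter with the site 19 bp from the promoter, grown 48 hours at 37°C on M9-minus-histidine with 0.1 mM IPTG and 5 mM 3-AT.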

| Variant | one-hybrid fitness for binding NBS DNA |
| --- | --- |
| LTQV | ≤ 0.2 |
| GLSL | ≤ 0.2 |
| RCIP | ≤ 0.2 |
| DKLQ | ≤ 0.2 |
| NVCD | ≤ 0.2 |
| VTGR | ≤ 0.2 |
| QMRI | 0.339 |
| LFDC | ≤ 0.2 |
| SIGT | ≤ 0.2 |
| RIKA | 0.327 |
| PERV | ≤ 0.2 |
| TVNT | ≤ 0.2 |
| FGER | ≤ 0.2 |
| TMGS | ≤ 0.2 |
| NEQA | ≤ 0.2 |
| AGPR | ≤ 0.2 |
| QSRC | 0.374 |
| RPQT | ≤ 0.2 |
| VMPM | ≤ 0.2 |
| RFDP | ≤ 0.2 |
| PTFA | ≤ 0.2 |
| FIVD | ≤ 0.2 |
| ARPC | ≤ 0.2 |
| QRKI | 0.52 |
| QLHY | ≤ 0.2 |
| VPVI | ≤ 0.2 |

| Variant | one-hybrid fitness for binding NBS DNA |
| --- | --- |
| FCEG | ≤ 0.2 |
| PFKS | ≤ 0.2 |
| QRCW | 0.269 |
| YAMW | ≤ 0.2 |
| KYLM | ≤ 0.2 |
| LLPI | ≤ 0.2 |
| TDFK | ≤ 0.2 |
| FYSR | ≤ 0.2 |
| RIPN | ≤ 0.2 |
| LKFG | ≤ 0.2 |
| VALT | ≤ 0.2 |
| QKCY | ≤ 0.2 |
| TKDR | ≤ 0.2 |
| VNHA | ≤ 0.2 |
| DCWL | ≤ 0.2 |
| EHHT | ≤ 0.2 |
| FVYR | ≤ 0.2 |
| DYYC | ≤ 0.2 |
| GIGV | ≤ 0.2 |
| RGSA | ≤ 0.2 |
| RGRY | ≤ 0.2 |
| HVTG | ≤ 0.2 |
| DHHG | ≤ 0.2 |
| TIRV | ≤ 0.2 |
| QCTV | ≤ 0.2 |
| TTYM | ≤ 0.2 |

| Variant | one-hybrid fitness for binding NBS DNA |
| --- | --- |
| HRYP | ≤ 0.2 |
| EGES | ≤ 0.2 |
| YPDI | ≤ 0.2 |
| VTMG | ≤ 0.2 |
| YTNL | ≤ 0.2 |
| NTQL | ≤ 0.2 |
| WVLH | ≤ 0.2 |
| VGWR | ≤ 0.2 |
| DYPS | ≤ 0.2 |
| VVTP | ≤ 0.2 |
| YSRY | ≤ 0.2 |
| KLGS | ≤ 0.2 |
| ANTF | ≤ 0.2 |
| LCHS | ≤ 0.2 |
| QPMA | ≤ 0.2 |
| AVTG | ≤ 0.2 |
| SHCG | ≤ 0.2 |
| HQEC | ≤ 0.2 |
| PHAG | ≤ 0.2 |
| SYMS | ≤ 0.2 |
| TYLE | ≤ 0.2 |
| TYNF | ≤ 0.2 |
| NACC | ≤ 0.2 |
| TSSP | ≤ 0.2 |

From a collection of fitness landscapes (doi:10.1016/j.celrep.2020.107928)
